Measured values reported in the supplement of paper PMC7125110.
± gives the standard error. This sample is rich in variants without activity.

B1: glmS ribozyme (parent)
chain: AUAAAAGCGCCAGAACUACAGAAAUGUAGUUGACGAGGAGGAGGUUUAUCGAAUUUUCGGCGGAUGCCUCCAAA

Experiments:
Conditions in all cases: with glucosamine-6-phosphate
glucosamine-6-phosphate [1] = variants of: B1; experiment: self-cleavage kobs at 40 uM GlcN6P; higher = faster cleavage; RNA array
Outline: (§1)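 Barcoded ribozyme variants on sequenced MiSeq chips were transcribed in situ by E. coli RNA polymerase and followed at 37 °C through a hybridised Cy3 probe. Glucosamine-6-phosphate at 40 μM to 10 mM in HEPES/KCl/Mg(OAc)2 buffer was flowed in, and tiles were imaged over ~14 h. Signals were normalised to baseline and to non-cleaving reference variants, and per-tile medians were fit to one- or two-exponential decays to give kobs. Weighted Michaelis–Menten fits across concentrations gave kcat and KM.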

glucosamine-6-phosphate [2] = variants of: B1; experiment: self-cleavage kobs at 160 uM GlcN6P; higher = faster cleavage; RNA array
Outline: as §1

glucosamine-6-phosphate [3] = variants of: B1; experiment: self-cleavage kobs at 2500 uM GlcN6P; higher = faster cleavage; RNA array
Outline: as §1

glucosamine-6-phosphate [4] = variants of: B1; experiment: self-cleavage kobs at 640 uM GlcN6P; higher = faster cleavage; RNA array
Outline: as §1

glucosamine-6-phosphate [5] = variants of: B1; experiment: self-cleavage kobs at 10000 uM GlcN6P; higher = faster cleavage; RNA array
Outline: as §1

Row | Variant | self-cleavage kobs at 40 uM GlcN6P (glucosamine-6-phosphate [1]) | self-cleavage kobs at 160 uM GlcN6P (glucosamine-6-phosphate [2]) | self-cleavage kobs at 2500 uM GlcN6P (glucosamine-6-phosphate [3]) | self-cleavage kobs at 640 uM GlcN6P (glucosamine-6-phosphate [4]) | self-cleavage kobs at 10000 uM GlcN6P (glucosamine-6-phosphate [5])
1 | AUAAAAGCGCCCGCACUACAGAAAUGUAGUUGACGAGGAGUAGGUUUAUCGAAUUUUCGUCGGAUUCCUCCAAA [A12C A14C G41U G60U G66U] | < 1e-05 s⁻¹ | < 1e-05 s⁻¹ | < 1e-05 s⁻¹ |  | 
2 | AUAAAAGCGCCCGAGCUACAGAAAUGUAGUUGACGAGGAGGAGGUUUAUCGAAUUUUCGGCGGAUGCCUCCAAA [A12C A15G] | 0.000302 ± 3.5e-05 s⁻¹ | 0.000883 ± 0.00014 s⁻¹ | 0.00626 ± 0.0015 s⁻¹ | 0.00332 ± 0.0006 s⁻¹ | 0.0142 ± 0.0018 s⁻¹
3 | AUAAAAGCGCCCGAGCUACAGAAAUGUAGUUCACGCGGAGGUGGUUUAUCGAAUUUUCGGCGGAUGCCUCCAAA [A12C A15G G32C A36C A42U] | < 1e-05 s⁻¹ |  |  |  | 
4 | AUAAAAGCGCCCGAUCUACAGAAAUGUAGUUGACGAGGAGGAGGUUUAACGAAUUUUCGGCGGAUGCCUCCAAA [A12C A15U U49A] | < 1e-05 s⁻¹ |  |  |  | 
5 | AUAAAAGCGCCCGAACUACAGAAAUGUAGUUGCCAAGGAUGAGGUUUAUCGAAUUUUCGGCGGAGGCCUCCAAA [A12C A33C G35A G40U U65G] | < 1e-05 s⁻¹ |  | < 1e-05 s⁻¹ | < 1e-05 s⁻¹ | 
6 | AUAAAAGCGCCCGAACUACAGAAAUGUAGUUGUCGAGGAGGAGGUUUAUCGAAUUUUCGGCGGAUGCUUCCAAA [A12C A33U C68U] | < 1e-05 s⁻¹ |  |  |  | 
7 | AUAAAAGCGCCCGAACUACAGAAAUGUAGUUGACGAGGAGGCGGUUUAUCGAAUUUUCGGCGGAUGCCUCCAAA [A12C A42C] | < 1e-05 s⁻¹ |  |  | < 1e-05 s⁻¹ | 
8 | AUAAAAGCGCCCGAACUACAGAAAUGUAGUUGACGAGGAGGAGGUUUCUCGAAUUUCCCGCGGAUGCCUCCAAA [A12C A48C U57C G59C] | < 1e-05 s⁻¹ |  | < 1e-05 s⁻¹ | < 1e-05 s⁻¹ | 
9 | AUAAAAGCGCCCGAAGUACAGAAAUGUAGUUGACGUGGAGGAGGUUUAUCGAAUUUUCGGCGGAUGCCUCCAAA [A12C C16G A36U] | < 1e-05 s⁻¹ |  |  |  | 
10 | AUAAAAGCGCCCGAACUACAGAAAUGUAGUUGAAGAGGAGGAGGUUUAUCGAAUUUUCGGCGGAUGCCUCCAAA [A12C C34A] | < 1e-05 s⁻¹ | < 1e-05 s⁻¹ |  | < 1e-05 s⁻¹ | 
11 | AUAAAAGCGCCCAGUACUACGAAAUGUAGUUGACGGGGAGGAGGUUUAUCGAAUUUUCGGCGGAUGCCUCCAAA [A12C G13A A14G A15U C16A U17C A18U C19A A20C A36G] | < 1e-05 s⁻¹ |  |  |  | 
12 | AUAAAAGCGCCCAAAAUACAGAAAUGUAGUUGACGAGGAGGUGGUUUAUCGAAUUUUCGGUGGAUGCCUCCAAA [A12C G13A C16A A42U C61U] | < 1e-05 s⁻¹ |  |  |  | < 1e-05 s⁻¹
13 | AUAAAAGCGCCCGAACUACAGAAAUGUAUUUGACGAGGAGGAGGUUUAUCGAAUUUUCGGCGGAUGUCUCAAAA [A12C G29U C67U C71A] | < 1e-05 s⁻¹ |  |  |  | 
14 | AUAAAAGCGCCCGAACUACAGAAAUGUAGUUGACGAGGAGGAGUUUUAUCGAAUUUUCGGCGUAUGCCUCCAAA [A12C G44U G63U] | < 1e-05 s⁻¹ |  |  |  | < 1e-05 s⁻¹
15 | AUAAAAGCGCCCGAACUACAGAAAUGUAGUUGACGAGGAGGAGGUUUAUCGAAUUUUCAGCGGAUGCCUCCAAA [A12C G59A] | < 1e-05 s⁻¹ | < 1e-05 s⁻¹ |  |  | 
16 | AUAAAAGCGCCCGAACUACAGAAAUGUAGUUGACGAGGAGGAGGUUUAUCGAAUUUUCCGCGGAUGCCUCCAAA [A12C G59C] | < 1e-05 s⁻¹ |  |  |  | 
17 | AUAAAAGCGCCCGAACUACAGAAAUGUAGUGGACGAGGAGGAGGUUUAUCGAAUUUUCGGCGGAUGCCUCCAAA [A12C U31G] | 8.48e-05 ± 1.8e-05 s⁻¹ |  |  |  | 
18 | AUAAAAGCGCCCGAACUACAGAAAUGUAGUUGACGAGGAGGAGGCUUAUCGAAUUUUCGGCGGAUGCCUCCAAA [A12C U45C] | 3e-05 ± 1.2e-05 s⁻¹ | 5.84e-05 ± 2.1e-05 s⁻¹ |  | 0.000289 ± 7.9e-05 s⁻¹ | 
19 | AUAAAAGCGCCCGAACUACAGAAAUGUAGUUGACGAGGAGGAGGUAUUUCGAAUUUUCGGCGGAUGCCUCCAAA [A12C U46A A48U] | < 1e-05 s⁻¹ |  |  |  | 
